Measurements as given in PubChem BioAssay AID2546 (National Center for Advancing Translational Sciences (NCATS), 2010).
Hit rate of the full screen: of about 310,000 compounds, about 11,000 (3.5%) were called active. This list was built around the results that the source calls inconclusive (neither active nor inactive); the mix of calls is not that of the screen. The call rests on the fitted dose curve; in most records, active means well fitted inhibition curve with a large enough effect; inconclusive means small, poorly fitted or top-dose-only effect, or effect the other way; inactive means flat fitted curve, though single readings scatter. Potencies of inconclusive entries are left out as doubtful fits.
On the % scale 0 is the no-effect control and ±100 the full control effect; potency means the concentration at half of the fitted maximal effect; tags describe the fitted curve by direction and shape.

Assay: VP16 counterscreen qHTS for inhibitors of ROR gamma transcriptional activity;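 further: Gal4-VP16 expression switched on by copper sulfate through the metallothionein promoter; nearly all actives have a fitted effect of over 50% in size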
Details: Drosophila S2 Gal4-VP16 UAS-luciferase, luminescence, 20 h; activity, negative = inhibition: at 53.6 µM (top of the series)
For `Cc1ccsc1C(=O)Nc1ccc2c(c1)OCCO2`, the Potency was inconclusive [inhibitor, single point].
In the case of `COc1cccc(-c2nc(-c3ccc(Br)o3)no2)c1`, the Potency is reported as inconclusive [inhibitor, single point].
For `C/C(=N\NC(=S)NCc1ccccc1)c1ccc2ccccc2c1`, the Potency was active: 4.47 µM.
For `CCOC(=O)C1(Cc2ccccc2Cl)CCN(Cc2csc(C(C)=O)c2)CC1`, the “activity, negative = inhibition” value was inactive: -13.4%.
With `O=C(CCl)N1N=C(c2ccco2)CC1c1cccs1` (configuration not stated) the Potency was active: 15.8 µM.
With `Cc1cc(NC(=O)OC2CCCCC2)ccc1[N+](=O)[O-]` the Potency was inconclusive [inhibitor, single point].
For `COc1ccc(OC)c(CCNC(=O)Cn2cccc2C(=O)c2ccccc2C)c1`, the “activity, negative = inhibition” value was inactive: -5.44%.
For `CN(C)CCNC(=O)/C(=C/c1ccc(-c2ccc(Cl)cc2)o1)NC(=O)c1ccccc1`, the Potency was inconclusive [inhibitor, single point].
For `COC(=O)CN1C(=S)N(C)C(=O)/C1=C/c1cccs1`, the Potency was inconclusive [activator, single point].
For `Cc1cccc(C)c1NC(=S)NC(=O)c1ccc(Br)o1`, the Potency was inconclusive [inhibitor, partial curve, poor fit].
With `CSc1ccc(CN(C)Cc2nc3ccccc3c(=O)[nH]2)cc1` the Potency was inconclusive [inhibitor, single point].
For `CCCCCCN1C=CC=C/C1=C/C=C(C#N)C#N`, the “activity, negative = inhibition” value was inactive: -20.2%.
For `Cc1nn(-c2ccccc2)c2sc(C(=O)NNC(=O)COc3cccc4ccccc34)cc12`, the Potency was inconclusive [inhibitor, partial curve].
For `CCOc1ccccc1NC(=O)c1nc(S(=O)(=O)Cc2cccc(C)c2)ncc1Cl`, the Potency was active: 2.51 µM.
For `Cc1cc(C)c2ccc3c(C)c(C)nc3c2[nH]1`, the “activity, negative = inhibition” value was inactive: -7.22%.
For `CCc1nnc(NC(=O)CSc2nnc(CNc3ccc(OC)cc3)n2CC)s1`, the “activity, negative = inhibition” value was inactive: 9.16%.
In the case of `Cc1cccc(N2CC(C(=O)Nc3nnc(SCCC4OCCO4)s3)CC2=O)c1` (configuration not stated), the “activity, negative = inhibition” value is reported as inactive: -1.1%.
For `C/C(=N\NC(=O)COc1ccc(C(C)(C)C)cc1)c1ccc(OC(F)F)cc1`, the Potency was inconclusive [inhibitor, single point].
With `COc1ccc(N2C(C(C)=O)=NN(c3ccccc3)C2c2cccs2)cc1` (configuration not stated) the Potency was inconclusive [inhibitor, single point].
In the case of `O=C(Nc1nc2ccccc2[nH]1)c1cccc([N+](=O)[O-])c1`, the Potency is reported as inconclusive [inhibitor, single point].
With `Cc1cccc(C(=O)N[C@H](C(=O)OCC(=O)NC2CCS(=O)(=O)C2)C(C)C)c1` (some centres not stated) the Potency was inconclusive [activator, single point].
For `O=S(=O)(c1ccc(F)cc1)n1cnc2ccccc21`, the “activity, negative = inhibition” value was inactive: 1.28%.
In the case of `COC(=O)C1=C(C)OC(N)=C(C#N)C1c1ccccc1F` (configuration not stated), the “activity, negative = inhibition” value is reported as inactive: 3.53%.
For `COc1ccc(-c2c(=O)n(OCc3nc4ccccc4[nH]3)c3ccccc3[n+]2[O-])cc1`, the “activity, negative = inhibition” value was inactive: -0.551%.
With `COc1ccc(N2C(=O)CC(Sc3nccc(C)n3)C2=O)cc1` (configuration not stated) the Potency was inconclusive [inhibitor, single point].
With `CC(=O)Nc1ccc(NS(=O)(=O)c2ccc3c(c2)oc(=O)n3C)cc1` the “activity, negative = inhibition” value was inactive: -7.03%.
For `C=CCn1c(SCC(=O)Nc2ccc(O)cc2)nc2sc(CC)cc2c1=O`, the “activity, negative = inhibition” value was inactive: 7.43%.
With `COc1ccc(/C=N/OC/C(O)=C(\C#N)c2nc3ccccc3[nH]2)cc1` the Potency was inconclusive [inhibitor, single point].
With `Cc1ccc(NC(=O)n2ccc(-c3ccc(-n4ccnc4)cc3)n2)cc1` the Potency was inconclusive [activator, single point].
For `CC(C)c1ccc(NC(=O)[C@@H]2CCC(=O)N2C2OC(=O)c3ccccc32)cc1` (some centres not stated), the Potency was inconclusive [inhibitor, single point].
For `COc1ccc(C(=O)NCC(=O)N/N=C/c2ccc([N+](=O)[O-])s2)cc1OC`, the Potency was inconclusive [inhibitor, single point].
In the case of `N#C/C(=C/c1cc(Br)cs1)C(=O)NCC1CCCO1` (configuration not stated), the Potency is reported as inconclusive [inhibitor, single point].
With `O=C(NCCSc1ccccc1)c1ccc(Br)cc1` the Potency was inconclusive [inhibitor, single point].
For `CCn1cc([N+](=O)[O-])c(C(=O)N2N=C(c3ccc(Cl)c(Cl)c3)CC2c2ccccc2O)n1` (configuration not stated), the Potency was inconclusive [inhibitor, single point].
In the case of `C=CCn1c(-c2cccn(Cc3ccc(Cl)cc3Cl)c2=O)n[nH]c1=S`, the Potency is reported as active: 10 µM.
For `Oc1cc2c(cc1CN1CCc3ccccc3C1)OCO2`, the “activity, negative = inhibition” value was inactive: 18.4%.
For `OC(CNCC1CCCO1)Cn1c2ccc(Br)cc2c2cc(Br)ccc21` (configuration not stated), the Potency was inconclusive [inhibitor, single point].
For `CC(Sc1n[nH]c(=O)[nH]c1=O)C(=O)OCc1ccccc1` (configuration not stated), the “activity, negative = inhibition” value was inactive: -6.6%.
In the case of `CC(C)NCC(O)c1ccc(O)c(O)c1` (configuration not stated), the Potency is reported as “inactive”.
For `[O-]/C(=C(\C(=S)Nc1cccc2ccccc12)[n+]1ccccc1)c1ccc2c(c1)OCCO2`, the Potency was inconclusive [inhibitor, single point].
For `Fc1ccc(-c2nnc3n2CCCCC3)cc1`, the “activity, negative = inhibition” value was inactive: 0.223%.
With `Cc1[nH]c2ccccc2c1/C=C/c1nc2ccccc2c(=O)[nH]1` the Potency was inconclusive [inhibitor, single point].
In the case of `O=C(CCn1c(=S)[nH]c2cc3c(cc2c1=O)OCO3)NCc1cccc(Cl)c1`, the Potency is reported as inconclusive [inhibitor, single point].
In the case of `O=C(N/N=C\c1c(O)ccc2ccccc12)c1ccc(S(=O)(=O)N2CCCCC2)cc1`, the Potency is reported as active: 3.98 µM.
For `COc1ccc(CN2CCN(Cc3cccc4nonc34)CC2CCO)c(C)c1C` (configuration not stated), the “activity, negative = inhibition” value was inactive: -7.72%.
With `Cc1onc(-c2c(F)cccc2Cl)c1-c1nnc(-c2ccc(C(F)(F)F)cc2)o1` the Potency was inconclusive [inhibitor, single point].
With `NC(=O)CN1C(=O)NC2(CCOc3ccccc32)C1=O` (configuration not stated) the “activity, negative = inhibition” value was inactive: -15.7%.
With `COC(=O)NC(CCc1ccccc1)C(C(=O)OC)C(=O)OC` (configuration not stated) the “activity, negative = inhibition” value was inactive: 0.21%.
With `O=C1CC(SC(=Nc2ccccc2)Nc2ccccc2)C(=O)N1c1cccc(Cl)c1` (configuration not stated) the “activity, negative = inhibition” value was inactive: -14.5%.
With `Cc1ccccc1NC(=O)N1c2ccccc2CC1C` (configuration not stated) the “activity, negative = inhibition” value was inactive: -7.62%.
With `CC1CCC2C(=O)N3C(CCC(C)C3c3ccc(-c4ccco4)cc3)C(=O)N2C1c1ccc(-c2ccco2)cc1` (configuration not stated) the activity, negative = inhibition was inactive: 5.31% [at 10 µM].
With `Cc1cc(Cl)cc(C)c1OCCCCCn1ccnc1` the Potency was active: 17.8 µM.
With `COc1ccc(C(=O)NCCNc2nc3ccc(C)cc3cc2C#N)cc1` the Potency was inconclusive [inhibitor, partial curve, poor fit].
With `Clc1cccc(CN2COc3c(cc(Cl)c4cccnc34)C2)c1` the Potency was active: 1.41 µM.
With `CC(C)=C(C#N)c1nc2ccccc2s1` the “activity, negative = inhibition” value was inactive: -1.29%.
In the case of `O=C(c1ccsc1)N1CCCC(N2CCN(c3ccccc3F)CC2)C1` (configuration not stated), the “activity, negative = inhibition” value is reported as inactive: -1.71%.
With `C=CCn1c(-c2c(C)nc3cc(C)ccn23)n[nH]c1=S` the Potency was inconclusive [inhibitor, single point].
For `CC(C)C[C@H](NC(=O)c1[nH]cnc1C(=O)Nc1ccccc1)C(=O)OC(C)(C)C`, the Potency was active: 8.91 µM.
With `CCCc1ccc(OCC(=O)Nc2cc(S(=O)(=O)CC)ccc2O)cc1` the Potency was inconclusive [inhibitor, single point].
In the case of `COc1ccc2nc(Nc3nc(CSc4ccc(C)cc4)cc(=O)[nH]3)nc(C)c2c1`, the “activity, negative = inhibition” value is reported as inactive: -2.89%.
For `Cc1cc(SCNC(=O)c2ccccc2)nc(C(C)C)n1`, the Potency was inconclusive [inhibitor, single point].
In the case of `COC(=O)[C@@H](Cc1c[nH]c2ccccc12)NC(=O)c1ccc2c(c1)OCO2`, the Potency is reported as inconclusive [inhibitor, single point].
In the case of `O=C1OC(c2ccccc2)=NC12CC2c1ccc(Cl)cc1` (configuration not stated), the Potency is reported as active: 5.01 µM.
In the case of `Cc1ccc(S(=O)(=O)CC(=O)Nc2ncc([N+](=O)[O-])s2)cc1`, the “activity, negative = inhibition” value is reported as inactive: -4.98%.
With `O=C(O)CSc1ncnc2sc3c(c12)CCC3` the Potency was inconclusive [inhibitor, single point].
In the case of `S=c1nc(NCc2cccc(Cl)c2)c2ccccc2[nH]1`, the Potency is reported as active: 8.91 µM.
For `CCOc1ccc(N2C(=O)CC(N(C)Cc3ccccc3)C2=O)cc1` (configuration not stated), the Potency was inconclusive [inhibitor, partial curve].
With `COc1cccc(-c2nn(C)c3sc(C(=O)N4CCOCC4)cc23)c1` the “activity, negative = inhibition” value was inactive: -13.6%.
With `O=C(O)c1ccc(-c2ccc(OS(=O)(=O)c3ccccc3F)cc2)cc1` the Potency was inconclusive [inhibitor, full curve, poor fit].
For `CCC(C)(C)NC(=O)/C=C/c1cccs1`, the Potency was inconclusive [activator, single point].
With `O=C(Nc1ccccc1)c1cnc(-c2ccccc2)nc1-c1ccccc1` the Potency was inconclusive [inhibitor, full curve, poor fit].
For `COc1ccc(C(=O)Nn2c(SCC(=O)NCC3CCCO3)nc3ccccc3c2=O)cc1` (configuration not stated), the Potency was inconclusive [inhibitor, full curve].
With `c1csc(-c2cn3ccc4ccccc4c3n2)c1` the Potency was inconclusive [inhibitor, single point].
For `Cc1ccc(CNc2ccc(Cl)cc2[N+](=O)[O-])cc1`, the “activity, negative = inhibition” value was inactive: 11.3%.
With `Cc1cccc(/C=N/n2c(-c3cc(-c4ccccc4)n[nH]3)n[nH]c2=S)c1` the Potency was inconclusive [inhibitor, single point].
With `Cc1ccc(C2CC2C(=O)NNC(=S)Nc2ccc(Cl)cc2)cc1` (configuration not stated) the “activity, negative = inhibition” value was inactive: -3.17%.
For `COc1ccc(-c2cc(C3CC3)nc3sc(C#N)c(N)c23)cc1`, the activity, negative = inhibition was inactive: -1.06% [at 0.365 µM].
